Data taken from the supplement of paper PMC10369915.
The list shows a part of the results. No stated cut-off is given here; in the data, active = 3.2 or more and inactive = the rest. Most of these values are background signal.

Key:
Assay in all cases: enrichment score (SH2-bound / input frequency) (ratio); bacterial display of known human phosphotyrosine sites (pTyr-Var adds point mutants) read by sequencing; higher = stronger binding; tyrosines were phosphorylated by kinases first
Details in all cases: peptide library: pTyr-Var
SHP2 C-SH2 domain E139D = target: SHP2 C-SH2 domain E139D
[1] = target: SHP2 C-SH2 domain wild-type
SHP2 N-SH2 domain L43F = target: SHP2 N-SH2 domain L43F
SHP2 N-SH2 domain T42A = target: SHP2 N-SH2 domain T42A
SHP2 N-SH2 domain T52S = target: SHP2 N-SH2 domain T52S
[2] = target: SHP2 N-SH2 domain wild-type

Measured: enrichment score
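Further: displayed peptides selected on beads carrying the immobilized SH2 domain, with library peptides lacking any tyrosine serving as negative controls.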

TSNQEYLDVSM [FGFR1_Y766_L769V]
inactive: SHP2 C-SH2 domain E139D 0.674 | [1] 0.717 | SHP2 N-SH2 domain L43F 0.824 | SHP2 N-SH2 domain T42A 0.667 | SHP2 N-SH2 domain T52S 0.665 | [2] 0.8

VHNLDYFKETT [FGFR3_Y647_K650E_YF]
inactive: SHP2 C-SH2 domain E139D 0.703 | [1] 0.943 | SHP2 N-SH2 domain L43F 0.781 | SHP2 N-SH2 domain T42A 0.608 | SHP2 N-SH2 domain T52S 0.629 | [2] 0.776

NNIDFYKNTTN [FGFR2_Y657_K659N_YF]
inactive: SHP2 C-SH2 domain E139D 0.762 | [1] 0.641 | SHP2 N-SH2 domain L43F 0.544 | SHP2 N-SH2 domain T42A 0.494 | SHP2 N-SH2 domain T52S 0.719 | [2] 0.726

ARGMEYLASQK [FGFR2_Y616]
inactive: SHP2 C-SH2 domain E139D 0.79 | [1] 0.682 | SHP2 N-SH2 domain L43F 0.857 | SHP2 N-SH2 domain T42A 0.741 | SHP2 N-SH2 domain T52S 0.531 | [2] 0.786

NNIDYYKKTTN [FGFR2_Y657]
inactive: SHP2 C-SH2 domain E139D 0.46 | [1] 0.545 | SHP2 N-SH2 domain L43F 0.511 | SHP2 N-SH2 domain T42A 0.298 | SHP2 N-SH2 domain T52S 0.658 | [2] 0.349

VHNLNYYKKTT [FGFR3_Y647_D646N]
inactive: SHP2 C-SH2 domain E139D 0.369 | [1] 0.574 | SHP2 N-SH2 domain L43F 0.557 | SHP2 N-SH2 domain T42A 0.693 | SHP2 N-SH2 domain T52S 0.683 | [2] 0.596

VHNLDYFKMTT [FGFR3_Y647_K650M_YF]
inactive: SHP2 C-SH2 domain E139D 1.2 | [1] 1.07 | SHP2 N-SH2 domain L43F 0.896 | SHP2 N-SH2 domain T42A 1.2 | SHP2 N-SH2 domain T52S 1.09 | [2] 0.835

FTNELYMMMRD [FGFR1_Y730_C725Y_YF]
inactive: SHP2 C-SH2 domain E139D 1.04 | [1] 0.877 | SHP2 N-SH2 domain L43F 1.04 | SHP2 N-SH2 domain T42A 1.05 | SHP2 N-SH2 domain T52S 1.06 | [2] 0.985

LVSCTYQLARR [FGFR2_Y608_G613R]
inactive: SHP2 C-SH2 domain E139D 0.289 | [1] 0.335 | SHP2 N-SH2 domain L43F 0.266 | SHP2 N-SH2 domain T42A 0.152 | SHP2 N-SH2 domain T52S 0.316 | [2] 0.205

HNLDYYKKTTN [FGFR3_Y648]
inactive: SHP2 C-SH2 domain E139D 0.818 | [1] 0.633 | SHP2 N-SH2 domain L43F 0.613 | SHP2 N-SH2 domain T42A 0.847 | SHP2 N-SH2 domain T52S 0.54 | [2] 0.904

MSLDQYSPSFP [FGFR1_Y776_P772S]
inactive: SHP2 C-SH2 domain E139D 0.793 | [1] 0.858 | SHP2 N-SH2 domain L43F 0.633 | SHP2 N-SH2 domain T42A 0.628 | SHP2 N-SH2 domain T52S 0.742 | [2] 0.685

DSSIRYLQEIY [FGG_Y135]
inactive: SHP2 C-SH2 domain E139D 0.792 | [1] 0.656 | SHP2 N-SH2 domain L43F 0.838 | SHP2 N-SH2 domain T42A 0.591 | SHP2 N-SH2 domain T52S 0.82 | [2] 0.772

HNLDFYKMTTN [FGFR3_Y648_K650M_YF]
inactive: SHP2 C-SH2 domain E139D 1.27 | [1] 1.15 | SHP2 N-SH2 domain L43F 1.09 | SHP2 N-SH2 domain T42A 0.781 | SHP2 N-SH2 domain T52S 1.01 | [2] 0.903

VHNLNYFKKTT [FGFR3_Y647_D646N_YF]
inactive: SHP2 C-SH2 domain E139D 0.509 | [1] 0.481 | SHP2 N-SH2 domain L43F 0.519 | SHP2 N-SH2 domain T42A 0.55 | SHP2 N-SH2 domain T52S 0.454 | [2] 0.335

HNLDFYKETTN [FGFR3_Y648_K650E_YF]
inactive: SHP2 C-SH2 domain E139D 1.12 | [1] 1.07 | SHP2 N-SH2 domain L43F 1.49 | SHP2 N-SH2 domain T42A 0.988 | SHP2 N-SH2 domain T52S 0.831 | [2] 1.05

HHIDFYKETTN [FGFR1_Y654_K656E_YF]
inactive: SHP2 C-SH2 domain E139D 1.4 | [1] 1.21 | SHP2 N-SH2 domain L43F 1.22 | SHP2 N-SH2 domain T42A 1.05 | SHP2 N-SH2 domain T52S 1.47 | [2] 1.41

VHNLDYYKQTT [FGFR3_Y647_K650Q]
inactive: SHP2 C-SH2 domain E139D 1.1 | [1] 1.26 | SHP2 N-SH2 domain L43F 1.25 | SHP2 N-SH2 domain T42A 1 | SHP2 N-SH2 domain T52S 0.837 | [2] 1.32

VHNLDYFKQTT [FGFR3_Y647_K650Q_YF]
inactive: SHP2 C-SH2 domain E139D 0.897 | [1] 0.675 | SHP2 N-SH2 domain L43F 0.811 | SHP2 N-SH2 domain T42A 0.612 | SHP2 N-SH2 domain T52S 0.882 | [2] 1.11

HNLNYYKKTTN [FGFR3_Y648_D646N]
inactive: SHP2 C-SH2 domain E139D 0.291 | [1] 0.107 | SHP2 N-SH2 domain L43F 0.113 | SHP2 N-SH2 domain T42A 0.269 | SHP2 N-SH2 domain T52S 0.261 | [2] 0.438
